Assay results published in the GPR68 mutational scans of Howard et al. (2025).
The least precise scores are not listed. Two further conditions of the source, in which the scores hardly spread, are not listed. In variant names, del marks residues removed and ins residues inserted between the two positions. For some assays here: The data file names ogerin without a concentration.

B1: GPR68, Q15743 (parent)
chain: MGNITADNSSMSCTIDHTIHQTLAPVVYVTVLVVGFPANCLSLYFGYLQIKARNELGVYLCNLTVADLFYICSLPFWLQYVLQHDNWSHGDLSCQVCGILLYENIYISVGFLCCISVDRYLAVAHPFRFHQFRTLKAAVGVSVVIWAKELLTSIYFLMHEEVIEDENQHRVCFEHYPIQAWQRAINYYRFLVGFLFPICLLLASYQGILRAVRRSHGTQKSRKDQIQRLVLSTVVIFLACFLPYHVLLLVRSVWEASCDFAKGVFNAYHFSLLLTSFNCVADPVLYCFVSETTHRDLARLRGACLAFLTCSRTGRAREAYPLGAPEASGKSGAQGEEPELLTKLHPAFQTPNSPGSGGFPTGRLA

Experiments:
[1] = variants of: B1; assay: cAMP reporter score (Enrich2 score, wild type = 0); higher = more signal; HEK293T, FACS bins
[2] = variants of: B1; assay: surface expression score (Enrich2 score, wild type = 0); higher = more signal; HEK293T, FACS bins

Variant | cAMP reporter score ([1]; pH 5.5) | cAMP reporter score ([1]; pH 6) | cAMP reporter score ([1]; pH 6, modulator: ogerin) | cAMP reporter score ([1]; pH 6.5, modulator: ogerin) | surface expression score [2]
T275_S276insGS | -0.745 | -0.007 | -1.24 | -1.74 | -1.71
MGNITADNSSMSCTIDHTIHQTLAPVVYVTVLVVGFPANCLSLYFGYLQIKARNELGVYLCNLTVADLFYICSLPFWLQYVLQHDNWSHGDLSCQVCGILLYENIYISVGFLCCISVDRYLAVAHPFRFHQFRTLKAAVGVSVVIWAKELLTSIYFLMHEEVIEDENQHRVCFEHYPIQAWQRAINYYRFLVGFLFPICLLLASYQGILRAVRRSHGTQKSRKDQIQRLVLSTVVIFLACFLPYHVLLLVRSVWEASCDFAKGVFNAYHFSLLLTSFACVADPVLYCFVSETTHRDLARLRGACLAFLTCSRTGRAREAYPLGAPEASGKSGAQGEEPELLTKLHPAFQTPNSPGSGGFPTGRLA [N278A] | -0.909 | -1.26 | -0.737 | -1.77 | 0.959
F277_N278insGS | -1.37 | -0.63 | -1.5 | -1.3 | -2.12
MGNITADNSSMSCTIDHTIHQTLAPVVYVTVLVVGFPANCLSLYFGYLQIKARNELGVYLCNLTVADLFYICSLPFWLQYVLQHDNWSHGDLSCQVCGILLYENIYISVGFLCCISVDRYLAVAHPFRFHQFRTLKAAVGVSVVIWAKELLTSIYFLMHEEVIEDENQHRVCFEHYPIQAWQRAINYYRFLVGFLFPICLLLASYQGILRAVRRSHGTQKSRKDQIQRLVLSTVVIFLACFLPYHVLLLVRSVWEASCDFAKGVFNAYHFSLLLVSFNCVADPVLYCFVSETTHRDLARLRGACLAFLTCSRTGRAREAYPLGAPEASGKSGAQGEEPELLTKLHPAFQTPNSPGSGGFPTGRLA [T275V] | 0.707 | 0.059 | 0.7 | 0.433 | 0.575
MGNITADNSSMSCTIDHTIHQTLAPVVYVTVLVVGFPANCLSLYFGYLQIKARNELGVYLCNLTVADLFYICSLPFWLQYVLQHDNWSHGDLSCQVCGILLYENIYISVGFLCCISVDRYLAVAHPFRFHQFRTLKAAVGVSVVIWAKELLTSIYFLMHEEVIEDENQHRVCFEHYPIQAWQRAINYYRFLVGFLFPICLLLASYQGILRAVRRSHGTQKSRKDQIQRLVLSTVVIFLACFLPYHVLLLVRSVWEASCDFAKGVFNAYHFSLLLYSFNCVADPVLYCFVSETTHRDLARLRGACLAFLTCSRTGRAREAYPLGAPEASGKSGAQGEEPELLTKLHPAFQTPNSPGSGGFPTGRLA [T275Y] | -1.51 | -2.07 | -1.02 | -1.09 | -2.12
MGNITADNSSMSCTIDHTIHQTLAPVVYVTVLVVGFPANCLSLYFGYLQIKARNELGVYLCNLTVADLFYICSLPFWLQYVLQHDNWSHGDLSCQVCGILLYENIYISVGFLCCISVDRYLAVAHPFRFHQFRTLKAAVGVSVVIWAKELLTSIYFLMHEEVIEDENQHRVCFEHYPIQAWQRAINYYRFLVGFLFPICLLLASYQGILRAVRRSHGTQKSRKDQIQRLVLSTVVIFLACFLPYHVLLLVRSVWEASCDFAKGVFNAYHFSLLLWSFNCVADPVLYCFVSETTHRDLARLRGACLAFLTCSRTGRAREAYPLGAPEASGKSGAQGEEPELLTKLHPAFQTPNSPGSGGFPTGRLA [T275W] | -1.35 | -0.451 | – | -1.54 | -2.21
S276_F277insGS | -0.846 | -0.731 | -1.84 | -1.03 | -2.52
T275_S276del | -0.413 | – | – | – | –
